Data reported in PubChem BioAssay AID488969 (Vanderbilt High Throughput Screening Facility, 2010).
In all, about 110,000 compounds were measured (“z-score”: median about -0.1, highest 2% from about 2 on). The list shows a part of the results. The source made the active and inactive calls.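 How the source made its calls: active means z-score in the third read window above 3 or below -3; inactive means the rest.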

biological target: Metabotropic glutamate receptor 8 (Rattus norvegicus) (UniProt P70579); experiment: mGluR8 Gi/Go-coupled signaling modulation – cell-based, rat, thallium flux, HTS, primary screen (AID 488969); settings: HEK293 rat mGluR8, GIRK (G protein-gated inwardly rectifying potassium channel) thallium flux, FluoZin2; at 10 µM; stronger effect = higher value; submaximal glutamate (EC20) added with thallium
UniProt P70579, sequence (P70579 whole entry, looked up): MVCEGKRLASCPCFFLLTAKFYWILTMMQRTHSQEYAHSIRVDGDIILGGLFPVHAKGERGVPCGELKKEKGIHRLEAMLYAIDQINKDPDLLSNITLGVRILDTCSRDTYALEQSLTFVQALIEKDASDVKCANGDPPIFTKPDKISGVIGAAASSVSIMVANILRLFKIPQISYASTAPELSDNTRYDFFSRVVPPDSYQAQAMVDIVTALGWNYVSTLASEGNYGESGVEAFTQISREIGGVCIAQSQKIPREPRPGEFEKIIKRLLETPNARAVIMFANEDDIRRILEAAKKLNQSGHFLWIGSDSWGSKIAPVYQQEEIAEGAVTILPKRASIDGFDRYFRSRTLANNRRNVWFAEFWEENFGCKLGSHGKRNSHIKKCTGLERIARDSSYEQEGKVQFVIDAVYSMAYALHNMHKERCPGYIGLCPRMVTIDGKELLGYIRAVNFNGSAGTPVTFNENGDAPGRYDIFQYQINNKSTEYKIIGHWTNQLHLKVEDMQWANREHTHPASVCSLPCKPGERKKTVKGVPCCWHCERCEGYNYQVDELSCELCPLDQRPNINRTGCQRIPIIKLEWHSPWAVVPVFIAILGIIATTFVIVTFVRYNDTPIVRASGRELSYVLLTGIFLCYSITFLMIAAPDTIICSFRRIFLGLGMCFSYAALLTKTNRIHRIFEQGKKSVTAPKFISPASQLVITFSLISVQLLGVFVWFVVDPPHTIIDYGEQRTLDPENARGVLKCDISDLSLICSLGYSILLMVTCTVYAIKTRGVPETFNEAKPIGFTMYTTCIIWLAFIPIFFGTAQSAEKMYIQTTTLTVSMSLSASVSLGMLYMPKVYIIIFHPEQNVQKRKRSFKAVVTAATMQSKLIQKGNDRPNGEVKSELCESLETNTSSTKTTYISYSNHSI

SMILES	z-score
NC(=O)CSc1nnc(-c2cnccn2)n1-c1ccccc1	0.0631
Cc1cc(OCC(=O)Nc2ccncc2)c(C)cc1Br	-0.215
CC1CN(C(=O)Cn2c(C(F)(F)F)nc3ccccc32)CC(C)O1 (configuration not stated)	-0.537
Cc1ccc(-n2c(=O)c(C#N)cc3c(=O)n4ccccc4nc32)cc1	-0.274
COc1ccc(CNC(=O)/C=C/c2ccc(OCCCF)cc2)cc1	0.0944
CSC1=C(C#N)C(c2ccccc2Cl)C(C(C)=O)=C(C)N1 (configuration not stated)	-1.68
Cc1cc(C)n(-c2nc3ccccc3[nH]c2=O)n1	-0.181
Cc1ccc(-n2c(C)cc(C=C(C#N)C#N)c2C)cc1	-0.127
COc1cc(S(=O)(=O)N(Cc2ccco2)C2CCCC2)ccc1-n1cnnn1	0.94
COc1ccc(OC)c(NC(=O)C23CCC(C)(C(=O)C2)C3(C)C)c1 (configuration not stated)	-0.0351
S=C(Nc1ccc2nsnc2c1)NC1CCCCC1	1.94
COC(=O)Cn1ncc2c3ccccc3n(C)c2c1=O	0.358
CC1(C)CC(O)C(CCC(O)c2ccccc2)C(C)(C)N1 (configuration not stated)	0.702
O=C(CCN1C(=O)/C(=C/C=C/c2ccccc2)SC1=S)Nc1cccnc1	0.578
CC(C#N)Sc1ncnc2sc3c(c12)CCC3 (configuration not stated)	0.00954
COC(=O)c1sccc1NC(=O)c1c(-c2ccccc2)noc1C	-0.0888
COc1ccc(OC)c(S(=O)(=O)NCc2cn3cccc(C)c3n2)c1	0.746
CCCOC(=O)c1c(NC(=O)c2cnn3c2NC(c2ccccc2)CC3C(F)(F)F)sc2c1CCCC2 (configuration not stated)	-0.0376
CCCCSCCCNC(=O)CS(=O)Cc1nc(-c2cccc(C)c2)oc1C (configuration not stated)	-1.3
Cc1ccsc1C(=O)Nc1nnc(-c2ccco2)o1	0.832
CCOc1cccc(NCc2cc3c(C(C)(C)C)nn(-c4ccccc4)c3[nH]c2=O)c1	-0.104
CC(=O)Nc1ccc(S(=O)(=O)CCC#N)cc1	0.135
Cc1cc(CN2C(=O)c3ccccc3C2=O)cc(N2CCOCC2)c1	-0.382

SMILES	z-score
Nc1nonc1C(=O)OCC(=O)c1ccc(Cl)cc1	0.669
COc1ccc(/C=N/NC(=O)c2cccc(Br)c2)cc1Cn1cc(Cl)cn1	0.178
CC(=O)Nc1ccc(NC(=O)c2ccccc2C)cc1	-0.192
c1ccc(SCc2nc(-c3cccnc3)no2)cc1	0.56
CC(=O)Nc1ccc(N/C(C)=C/C(=O)c2cccnc2)cc1	-0.0636
O=C(O)c1cccc(NC(=O)C23CC4CC(C2)CC(n2cnc(Cl)n2)(C4)C3)c1	-0.548
CCOc1ccccc1N1CSC2=C(C#N)C(c3c(OC)ccc4ccccc34)CC(=O)N2C1 (configuration not stated)	-0.15
COc1ccc(-c2nnc3sc(-c4cccs4)nn23)cc1OC	-0.293
CC(C)CN1C(=O)c2ccc(NC(=O)c3cccs3)cc2C1=O	-0.259
CC(C)(C)OC(=O)NCC12C=CC(O1)C1C(=O)N(Cc3ccccc3)C(=O)C12 (configuration not stated)	-0.127
CCC(C(=O)OC)n1cnc2c(nnn2-c2ccc(OC)cc2)c1=O (configuration not stated)	-0.912
CCCCN1Cc2cc(C(=O)c3cc(OC)ccc3O)cnc2NC1=O	-0.207
Cc1ccc2c(c1)C=CC(C)(C)S2(=O)=O	0.142
COc1ccccc1CNC(=O)C(C)NS(=O)(=O)c1ccc(C)cc1 (configuration not stated)	0.164
O=C(Nc1ccccc1NC(=O)c1c(F)c(F)c(F)c(F)c1F)c1c(F)c(F)c(F)c(F)c1F	-0.051
COc1ccc(C(=O)CSc2nc(N)nc(SC)c2C#N)cc1	-0.106
Cc1ccc(Nc2ncccc2C(=O)NCc2cccs2)c(C)c1	-0.127
COCCN(CC(=O)NC1CCCCC1)C(=O)c1csnn1	-0.0901
O=C(Nc1ccc(NC(=O)c2ccco2)cc1)c1cnccn1	0.103
Cc1ccc(NC(=O)Cn2nc(C)c3ccccc3c2=O)cc1	-0.332
Cc1ccc(C(=O)C(C)OC(=O)c2ccccc2[N+](=O)[O-])cc1 (configuration not stated)	-0.0247
COc1ccc2nc(NC(=O)CSc3nc4cccnc4n3C)sc2c1	-0.89
COc1ccc(S(=O)(=O)Nc2ccc(NC(C)=O)cc2)cc1OC	0.15

SMILES	z-score
COc1cccc(NC(=O)Cn2cc3c(n2)CCCCC3)c1	2.89
CCOC(=O)C(C)Sc1nnc(NC(=O)c2ccc(C)c([N+](=O)[O-])c2)s1 (configuration not stated)	-0.109
COc1ccc(C(CNC(=O)c2ccc(-n3cnnn3)cc2)N2CCOCC2)cc1 (configuration not stated)	0.602
CN(CCNC(=O)C1CCN(S(=O)(=O)c2cnc[nH]2)CC1)Cc1ccccc1	0.122
Cc1cccc(NC(=O)CCc2c(C)nc3ncnn3c2C)n1	0.666
CCOC(=O)c1cnc2c(C(F)(F)F)cccc2c1N1CCOCC1	-0.0502
COC(=O)CSc1nnc(-c2sc3ccccc3c2Cl)o1	0.302
COc1ccc(-c2ccc(-c3noc(-c4cccs4)n3)c(OC)n2)cc1	-0.0896
CNCCOc1ccccc1-c1ccccc1	-0.398
Cc1cccc(-n2ncc3c(NCCc4ccc(S(N)(=O)=O)cc4)ncnc32)c1	active: 8.89
Cc1nn(-c2ccccc2)c(Cl)c1/C=C/C(=O)c1ccc(O)cc1	0.0167
NC(=O)c1ccccc1OCC(=O)NC12CC3CC(CC(C3)C1)C2	-0.0638
CCCCOC(=O)c1ccc(NC(=O)C2CCCO2)cc1 (configuration not stated)	-0.0259
O=C(c1cccc(S(=O)(=O)N2CCCC2)c1)c1nnc(-c2ccncc2)o1	0.87
COC(=O)NNC(=O)C(C)Oc1ccc(Cl)cc1Cl (configuration not stated)	0.139
Cc1ccc(Cl)c(NC(=S)N(CCCN2CCOCC2)Cc2ccco2)c1	-0.227
Cc1ccc(C(=O)N/C(=C\c2cccs2)C(=O)NCCCn2ccnc2)cc1C	0.219
COc1ccc(-c2cnc3c(c2)CCC3(C#N)C#N)cc1	0.416
CCOC(=O)C1CCCN(Cc2cccc(Cl)c2)C1 (configuration not stated)	0.258
Cc1ccc(C)c(CS(=O)(=O)c2cn(CC(=O)N3CCCCC3)c3ccccc23)c1	0.152
COc1ccc(NC(=O)c2oc3ccccc3c2NC(=O)c2ccco2)c(OC)c1	-0.246
CCCCOc1ccc(-c2nnn(C(C)(C)C(=O)OC)n2)cc1	-0.0425
Cc1ccc(NC(=O)CN(C)S(=O)(=O)c2cccc3nsnc23)cc1Cl	0.0103

SMILES	z-score
CCN(CC)C(=O)C1=C(C)Nc2nc3ccccc3n2C1c1cccc(OC)c1 (configuration not stated)	-0.275
COc1ccc([N+](=O)[O-])cc1NC(=O)Cn1ccsc1=N	-2.33
CCCC(=O)Nc1ccc(C(=O)NNC(=O)COc2ccc(Br)c(C)c2)cc1	-0.127
COC(=O)c1sccc1NC(=O)c1cccnc1	0.00083
CN(C)c1cc[nH]c(=O)c1C#N	-0.277
Cn1nnnc1SCC(=O)Nc1ccccc1N1CCCCC1	0.626
O=C(c1ccc2c(c1)OCO2)N1CCc2ccccc2C1	-0.016
Cc1cc(-c2nnc(SCc3cccnc3)o2)no1	-0.0905
Cc1ccc2nc(-c3ccc(NS(C)(=O)=O)cc3)cc(-c3ccccc3)c2c1	-0.184
O=C(Nc1cc(C(F)(F)F)ccc1Cl)c1cc(C2CC2)on1	0.161
O=C(O/N=C(\c1ccccc1)c1ccccn1)c1ccc(Cl)c(Cl)c1	1.31
Cc1ccc(-c2ccc(=O)[nH]n2)cc1	0.0654
COc1ccc(N2CCN(C(=O)CSc3ncccc3-c3nc4ccccc4[nH]3)CC2)cc1	-0.349
N/C(Cc1cccc2ccccc12)=N\OC(=O)Cc1cccs1	-0.179
O=C(Cn1cnc2sc(-c3ccccc3)cc2c1=O)NCc1ccco1	0.204
CCOC(=O)N/N=C/c1c(C)nn(-c2ccccc2Cl)c1Cl	1.92
CCOc1cc(NC(=O)c2ccco2)c(OCC)cc1NC(=O)Cc1ccc(OC)c(OC)c1	-0.0364
CCc1nnc(NC(=O)c2cccc(NC(=O)C(C)C)c2)s1	0.867
O=C1Nc2ccccc2/C1=N/c1sc2c(c1C(=O)NCCc1ccccc1)CCCC2	0.975
COc1cc(/C=C/C(=O)N2C(=O)c3cccc(N)c3C2=O)cc(OC)c1OC	-0.0749
CCCc1nc2ccc(NC(=O)c3cccs3)cc2c(=O)n1Cc1ccccc1Cl	-0.354
COc1cccc(-c2cc(C(=O)NCCCn3ccnc3)no2)c1	-0.58
Cn1c(SCC(=O)NCC2CCCO2)nnc1-c1c[nH]c2ccccc12 (configuration not stated)	-0.0829

SMILES	z-score
Nc1cc(=O)[nH]c(SCC(=O)Nc2ccc(S(=O)(=O)N3CCOCC3)cc2)n1	0.0872
CCOC(=O)Cn1nc(-c2ccc(C)cc2)ccc1=O	-0.0724
CCOC(=O)c1cc2ccc(OC)cc2oc1=O	-0.275
O=c1[nH]c(=O)n(Cc2ccco2)c2c1C(C(F)(F)F)(C(F)(F)F)N=C(CCC1CCCCC1)N2	0.103
O=C(Nc1cccc(F)c1)C1CCN(C(=O)c2ccc(Br)cc2)CC1	-0.354
O=C(CSc1ccc(-c2ccc(F)cc2)nn1)N1CCN(c2ccccc2)CC1	-0.139
Cc1cc(C)nc(NC(=O)c2c(-c3ccccc3Cl)noc2C)n1	0.316
O=C(NCc1ccco1)C1CCN(S(=O)(=O)c2cccc3cccnc23)CC1	0.152
COC(=O)c1sc2ccccc2c1-n1cccc1C(=O)C(=O)Nc1ccc(F)cc1	-0.206
O=C(c1ccco1)N1CCN(c2ncnc3c2oc2ccccc23)CC1	-0.221
O=C(c1cc(Cl)c(=O)n(Cc2ccccc2)c1)N1CCOCC1	-0.0137
Clc1cccc(Cl)c1Cn1c(-c2cccnc2Cl)nc2ccccc21	0.0546
COc1ncnc2c1NC1=C(S2)C(=NCCC(=O)O)CC(C)(C)C1	-0.837
CC(O)CNc1nc2sc3c(c2c(=O)n1CCc1ccccc1)CCCCC3 (configuration not stated)	-0.35
COc1ccc(/C=C/C(=O)Nc2cc(C(F)(F)F)ccc2Cl)cc1	-0.669
CS(=O)(=O)c1ccc2nc(N)sc2c1	-0.166
Cn1c(NN)nc2sc3c(c2c1=O)CC(C)(C)OC3	-0.243
COc1ccc(C2=NN(C(=O)CSc3nc4ccccc4s3)C(c3ccc(OC)cc3)C2)cc1 (configuration not stated)	-0.104
CCOC(=O)C1CCN(c2c(NCc3ccc(C(=O)NC4CCCC4)cc3)c(=O)c2=O)CC1	0.122
N#Cc1c(N)nc2c(c1N)CC(CO)O2 (configuration not stated)	0.442
